In article PMC4336329 (PLoS ONE, 2015):
About 14,000 (4.5%) of roughly 310,000 compounds showed an effect of 50% or more. Effects have a minus sign here. Some of the results follow.

biological target: human ether-à-go-go-related gene (hERG) potassium channel (human, UniProt Q12809); experiment: primary screen, population patch clamp on CHO cells stably expressing hERG
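Also: peak tail current of the secondary pulse compared with the same well before compound.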

Sequence of human ether-à-go-go-related gene (hERG) potassium channel (Q12809 whole entry, looked up): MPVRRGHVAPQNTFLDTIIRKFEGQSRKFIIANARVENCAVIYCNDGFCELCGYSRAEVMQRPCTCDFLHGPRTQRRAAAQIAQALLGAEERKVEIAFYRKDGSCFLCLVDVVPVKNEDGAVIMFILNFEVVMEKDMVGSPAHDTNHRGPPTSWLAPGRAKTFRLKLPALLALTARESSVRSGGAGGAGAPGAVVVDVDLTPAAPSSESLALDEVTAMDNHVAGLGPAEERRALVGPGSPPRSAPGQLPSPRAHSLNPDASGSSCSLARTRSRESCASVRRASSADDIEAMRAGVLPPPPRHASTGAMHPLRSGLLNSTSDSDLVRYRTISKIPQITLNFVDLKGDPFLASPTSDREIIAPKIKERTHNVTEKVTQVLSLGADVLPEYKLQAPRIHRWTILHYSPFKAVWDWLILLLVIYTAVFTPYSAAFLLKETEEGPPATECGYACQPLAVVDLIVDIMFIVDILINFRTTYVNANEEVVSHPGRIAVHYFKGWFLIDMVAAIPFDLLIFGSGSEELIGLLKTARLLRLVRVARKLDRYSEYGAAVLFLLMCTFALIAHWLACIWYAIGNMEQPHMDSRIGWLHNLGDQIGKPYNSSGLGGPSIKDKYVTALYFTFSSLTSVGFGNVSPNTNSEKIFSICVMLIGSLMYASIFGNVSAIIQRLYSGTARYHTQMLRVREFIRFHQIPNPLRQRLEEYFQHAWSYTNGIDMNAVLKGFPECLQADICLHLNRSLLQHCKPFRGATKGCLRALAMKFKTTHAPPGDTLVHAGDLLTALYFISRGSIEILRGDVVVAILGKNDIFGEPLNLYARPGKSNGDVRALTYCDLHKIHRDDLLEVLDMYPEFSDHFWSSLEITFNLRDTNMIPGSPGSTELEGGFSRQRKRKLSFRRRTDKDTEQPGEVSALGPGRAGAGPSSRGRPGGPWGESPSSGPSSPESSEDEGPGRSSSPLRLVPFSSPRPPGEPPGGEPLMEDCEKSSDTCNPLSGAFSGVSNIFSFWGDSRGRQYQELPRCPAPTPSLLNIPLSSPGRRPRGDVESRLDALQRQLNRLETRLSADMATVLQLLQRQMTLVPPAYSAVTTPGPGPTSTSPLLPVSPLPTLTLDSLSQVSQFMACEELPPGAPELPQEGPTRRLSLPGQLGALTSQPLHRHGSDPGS

Row | Compound | hERG current change (%, negative = inhibition) at 10uM [%]
1 | O=C(NCCCCc1ccccc1)C1CC(c2ccc(C(F)(F)F)cc2)=NO1 (centres unmarked) | 2.14
2 | CCOCCCNC(=O)C(c1ccccc1)N(Cc1cccs1)C(=O)CNC(C)=O (centres unmarked) | 3.81
3 | O=c1c2ccccc2ncn1-c1ccc([N+](=O)[O-])cc1[N+](=O)[O-] | 10.7
4 | N#CC1(c2ccccc2)CCN(C2CC(=O)N(c3ccc4c(c3)OCO4)C2=O)CC1 (centres unmarked) | 20.1
5 | Cc1ccc(C(=O)NC(=S)N2CC(C)OC(C)C2)cc1[N+](=O)[O-] (centres unmarked) | 18.4
6 | Cc1cc(C(=O)O)cc(S(=O)(=O)NNC(=O)c2cccs2)c1C | 14.1
7 | CCCNC(=O)C(Cc1cccc(Cl)c1)NC(=O)c1ccc(C#N)cc1 (centres unmarked) | -11
8 | COc1ccc(CC(=O)OCC(=O)NC(=O)Nc2ccccc2F)cc1 | 7.77
9 | Cc1nc2cc(NC(=O)Nc3ccc(N4CCOCC4)cc3)ccc2n1C | 6.34
10 | COc1cccc(NC(=O)C(C)Sc2nnc(C3CC3)n2C2CC2)c1 (centres unmarked) | -67
11 | CCCNC(=O)[C@H](Cc1c[nH]c2ccccc12)NC(=O)c1ccccc1Cl | 7.44
12 | O=C(N/N=C/c1ccncc1)c1ccccc1OCc1ccc(Br)cc1 | -24
13 | CCOC(=O)N1N=C(C)CC1(O)c1ccccc1 (centres unmarked) | -4.74
14 | CC(C)NC(=O)c1cc2nc(-c3ccco3)cc(C(F)(F)F)n2n1 | -9.42
15 | COc1ccccc1N1CCN(C(=O)CNC(=O)Cn2cnc3sc(C)c(C)c3c2=O)CC1 | -3.28
16 | O=c1[nH]c(=O)n(-c2cccc(Cl)c2)c(O)c1C=NCCN1CCCCC1 | 7.9
17 | COc1cc2c(cc1NC(=O)C1CCCO1)oc1ccccc12 (centres unmarked) | 0.857
18 | Cc1nc2nc(SCc3ccc([N+](=O)[O-])cc3)[nH]c2cc1Br | 1.02
19 | O=C(CCCCN1CCCCC1)c1ccc2c(c1)Cc1ccccc1-2 | -44.8
20 | Cc1ccc2nc(Cl)c(CN(C(=O)c3cnccn3)C3CCCCC3)cc2c1 | -24.7
21 | COCCN1C(=O)NC(=O)/C(=C\c2ccc(F)cc2)C1=O | 23.4
22 | Cc1ccc(NC(=O)c2cccc(C(=O)OC(C)C)n2)c(Br)c1 | -3.66

Row | Compound | hERG current change (%, negative = inhibition) at 10uM [%]
23 | CCOC(=O)c1c(C)n(Cc2ccccc2)c2ccc(OCC(O)CN3C(=O)CNC3=O)cc12 (centres unmarked) | 2.2
24 | O=C(CSc1nc2ccccc2[nH]1)Nc1ccccc1F | -10.1
25 | O=CN(CCN(C=O)CN1CCCCC1)CN1CCCCC1 | 14.9
26 | COCCN(C(=O)CCCC(=O)Nc1ccccn1)C(C(=O)NC1CCCCC1)c1ccc(C)cc1 (centres unmarked) | -17.7
27 | Cl.O=C(c1ccccc1)N1CCN(CC(O)COCC2CC=CCC2)CC1 (centres unmarked) | -24.3
28 | COc1cccc(N(C(=O)CNC(=O)c2ccco2)C(C(=O)NC2CCCCC2)c2ccncc2)c1 (centres unmarked) | -7.66
29 | O=S(=O)(c1cccc2nonc12)N1CCN(c2cccc(Cl)c2)CC1 | -4
30 | COc1cc(CC(=O)Nc2nc(-c3ccccc3)c(C(C)=O)s2)cc(OC)c1OC | 12.8
31 | CC(=O)OC1COC(N2CCc3cc([N+](=O)[O-])ccc32)C(OC(C)=O)C1OC(C)=O (centres unmarked) | 2.87
32 | COc1cc(OC)cc(-c2nnc(Nc3nc4c(F)cccc4s3)o2)c1 | 11.8
33 | CC(=O)n1cc(C=C2C(=O)NC(=O)NC2=O)c2ccccc21 | -14.7
34 | COC(=O)c1ccccc1NC(=O)c1ccc(COc2ccc(C)c(C)c2)o1 | 11.9
35 | CCOC(=O)c1ccc(N/C=C/C(=O)c2ccc(OC)c(OC)c2)cc1 | 6.32
36 | C/C(=N\Nc1nc2ccccc2[nH]1)c1cc2ccccc2o1 | -1.05
37 | COc1ccc(-c2cc(C(F)(F)F)nc(N3CCN(C)CC3)n2)cc1OC | -18.6
38 | Cc1cccc(NC(=O)CSc2nnc(Cn3cnc4ccccc43)o2)c1 | -9.07
39 | C#CCSc1nnc(C)c(C)n1 | 1.4
40 | O=C1CN(CC(=O)Nc2ccc(SC(F)F)cc2)CCN1 | -32.6
41 | CN1CCN(c2ccc(NC(=O)c3cc(S(N)(=O)=O)ccc3N3CCOCC3)cc2)CC1 | -0.0337
42 | O=C(/C=C/c1cccc([N+](=O)[O-])c1)OCC(=O)c1ccccc1 | 20.7
43 | O=C(COc1c(Cl)cc(Cl)cc1Cl)c1ccc(Cl)cc1 | 2.92
44 | O=C1COc2ccc(C(=O)COC(=O)CNC(=O)c3ccccc3)cc2N1 | -4.81

Row | Compound | hERG current change (%, negative = inhibition) at 10uM [%]
45 | Cc1ccc(C(=O)OCC(=O)Nc2ccc3[nH]c(=O)[nH]c3c2)o1 | -1.47
46 | Cc1cc(C(=O)Nc2ccc3c(c2)CCC3)ccc1[N+](=O)[O-] | 6.06
47 | COc1ccc(-c2c(-c3cc(OC)cc(OC)c3)n(C)c3ccc(-c4ccc5[nH]ccc5c4)cc23)cc1 | 11.3
48 | Cc1ccc(NC(=O)NCC(c2ccccc2)N(C)C)cc1 (centres unmarked) | 12.4
49 | O=C(NCC1CCCCC1)C1CCN(C(=O)NC2CCCCC2)CC1 | 14
50 | COCc1c(Br)c(C)nc(OCC(=O)O)c1C#N | 13.4
51 | O=C(O)c1cccc(S(=O)(=O)N2CCCC(c3nc4c(nnn4Cc4ccc(F)cc4)c(=O)[nH]3)C2)c1 (centres unmarked) | -15.3
52 | CN1CCN(CCCNC(=O)c2ccc3c(=O)n(CCc4ccccc4)c(=O)[nH]c3c2)CC1 | 15.3
53 | CN1CCN(Cc2ccc3ccccc3c2)CC1 | 17.9
54 | CS(=O)(=O)n1nc(-c2ccco2)nc1N | 20.3
55 | Nc1cc(C(=O)c2cccs2)ccc1Cl | 1.62
56 | CCCN(CCC)C(=O)c1cc([N+](=O)[O-])cc2c1-c1ccc([N+](=O)[O-])cc1C2=C(C#N)C#N | -35.3
57 | O=C(CN1C(=O)CC(c2ccco2)Sc2ccccc21)NCc1ccc2c(c1)OCO2 (centres unmarked) | -37.1
58 | COc1cccc(NC(=O)CSc2nc(N)cc(N)n2)c1 | 5.66
59 | O=[N+]([O-])c1ccc(C[n+]2ccc(Cc3ccccc3)cc2)cc1.[Cl-] | -34.2
60 | O=C(CN1CCc2ccccc21)NN1CC(=O)N(c2ccc(Cl)cc2)CC1=O | 8.1
61 | O=C(c1ccco1)N1CCN(C2CCCC2)CC1 | 11.3
62 | CCc1nnc(SC(C)C(=O)Nc2nccs2)n1C (centres unmarked) | 0.584
63 | CCN(CC(=O)Nc1ccc(N2CCOCC2)cc1)CC(=O)NC(C)(C)C | -1.96
64 | O=c1c2oc3ccccc3c2ncn1Cc1cccc(Cl)c1 | 14.3
65 | Cc1ccccc1NC(=O)NCc1ccc2c(c1)OCO2 | 11.6
66 | CC(=O)Nc1ccc(OS(=O)(=O)c2ccc(Cl)cc2)cc1 | -24.5

Row | Compound | hERG current change (%, negative = inhibition) at 10uM [%]
67 | COc1ccc(NC(=O)c2nc(C)c(C3(C)CC(c4ccccc4)=NO3)s2)cc1 (centres unmarked) | 3.84
68 | CSc1ccc(S(=O)(=O)N2CCC(C(=O)Nc3cccnc3)CC2)cc1 | -48
69 | NS(=O)(=O)c1ccc(CCNC(=O)CNC(=O)c2ccc(Oc3ccccc3)cc2)cc1 | 11.4
70 | Nc1c(-c2ccc(Cl)cc2)cnn1-c1cc(C(F)(F)F)cc(C(F)(F)F)c1 | 11.2
71 | COCCN(CC(=O)Nc1cccc(C)c1C)C(=O)Cc1cccs1 | -14.5
72 | CCCCn1nc2cc(C(=O)NCc3ccc(OC(F)(F)F)cc3)ccc2c1OC | -3.56
73 | COc1cc2c(cc1OC)CN(Cc1ccc(C)s1)CC2 | -21.3
74 | O=C(CSc1cccc2cccnc12)N/N=C/c1cccc(O)c1 | 2.95
75 | CCCCNC(=S)NC(=O)c1ccccc1Br | 0.32
76 | COCCCN(C(=O)Cc1coc2cc(C)c(C)cc12)c1c(N)n(Cc2ccccc2)c(=O)[nH]c1=O | -11.7
77 | CC(=O)c1cccc(N(CC(=O)NC2CCCCC2)C(=O)c2csnn2)c1 | 7.98
78 | CS(=O)(=O)c1ccc(-c2nnc(NC(=O)c3cccc(N4C(=O)CCC4=O)c3)o2)cc1 | 6.65
79 | C#Cc1cccc(NC(=O)c2ccc3c(c2)C(=O)N(Cc2cccnc2)C3=O)c1 | -7.57
80 | O=C(Nc1ccc(F)cc1)Nc1ccccc1C(=O)NCCN1CCNC1=O | 7.26
81 | Cc1nc(CN(C)Cc2nc(Cc3cccc(F)c3)no2)cs1 | -17.9
82 | Cc1nn(C)c(C)c1S(=O)(=O)N1CCC(C(=O)Nc2ccc3c(c2)OCCO3)CC1 | 5.99
83 | CSc1nnc(CCNS(=O)(=O)c2ccc(Br)cc2)n1C | 2.41
84 | Cc1cc(Cl)ccc1OCC(=O)NCCCn1ccnc1 | -29.8
85 | CN(C(=O)CC1C(=O)NCCN1Cc1cccc(C(F)(F)F)c1)C1CCOCC1 (centres unmarked) | 11.8
86 | CCOC(=O)CSc1nc(C)nc2c1sc1nc(C)c(C(C)=O)c(-c3ccc(OC)cc3)c12 | -4.32
